# Some of the results follow.
# B1: Na-CTL-1 (Necator americanus) (protein)
# chain: MQRSFLLLLVVLAGAWAVNTTIPLKLMGGFTPMKYQCVGRVSDIWADVLFLIESSDMITKSGFRQVIAFITATTKKMTIGQDEKQTRVGFITYGEEAKLIYDLDHWRSTEKLSDLVQKIPYVKSSGTNIAAAIALANKVFNSPTHRPNVPKVMVIVANGLKKGSQNPIPVATAFKDFGGIIITIEYTQYDNIQVPILKKIASEGYNIRSNDEDFSVRTLTNMLLQANCFCPDHYVPFRVNNPEFGCFVTAKIPSMWRDAAEMCRAVEEGKLVKVENEEKAAFIMKLVGPKKEAWIGLRYYGNKFQWTDGTKLNADDFNLWPEDIKELNGPHCVSMYQDQKDKKYYWRAGKCLEDMRYVCEVQPCSASNYCSEPVFMYRQKHRALLPAPPPPPN
# How the values were obtained:
# Test in all cases: glycan array binding signal (z-score within array); higher = stronger binding
# Settings in all cases: glycan notation: IUPAC condensed, linker removed
# [1] = biological target: GlcNAc(b1-2)Gal(b1-3)GalNAc
# Summary of the method: (§1)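 Glycan array data were curated from 3228 arrays in the Consortium for Functional Glycomics database and kept only where the protein sequence was available. Glycan names were converted to IUPAC-condensed notation, and columns mapping to the same glycan were averaged. The binding signal is a within-array Z-score, averaged across arrays of the same protein sequence at different concentrations or buffers and across linkers. Negative Z-scores can be read as non-binding.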
# [2] = biological target: GlcNAc(b1-2)Man(a1-3)[GlcNAc(b1-2)Man(a1-6)]Man(b1-4)GlcNAc(b1-4)GlcNAc
# Summary of the method: as §1
# [3] = biological target: GlcNAc(b1-2)Man(a1-3)[GlcNAc(b1-2)Man(a1-6)]Man(b1-4)GlcNAc(b1-4)[Fuc(a1-6)]GlcNAc
# Summary of the method: as §1
# [4] = biological target: GlcNAc(b1-2)Man(a1-3)[GlcNAc(b1-4)][GlcNAc(b1-2)Man(a1-6)]Man(b1-4)GlcNAc(b1-4)GlcNAc
# Summary of the method: as §1
# [5] = biological target: GlcNAc(b1-2)Man(a1-3)[GlcNAc(b1-4)][GlcNAc(b1-2)Man(a1-6)]Man(b1-4)GlcNAc(b1-4)[Fuc(a1-6)]GlcNAc
# Summary of the method: as §1
# [6] = biological target: GlcNAc(b1-2)[GlcNAc(b1-4)]Man(a1-3)[GlcNAc(b1-2)Man(a1-6)]Man(b1-4)GlcNAc(b1-4)GlcNAc
# Summary of the method: as §1
# [7] = biological target: GlcNAc(b1-2)[GlcNAc(b1-4)]Man(a1-3)[GlcNAc(b1-4)][GlcNAc(b1-2)Man(a1-6)]Man(b1-4)GlcNAc(b1-4)GlcNAc
# Summary of the method: as §1
# [8] = biological target: GlcNAc(b1-2)[GlcNAc(b1-4)]Man(a1-3)[GlcNAc(b1-4)][GlcNAc(b1-2)[GlcNAc(b1-6)]Man(a1-6)]Man(b1-4)GlcNAc(b1-4)GlcNAc
# Summary of the method: as §1
# [9] = biological target: GlcNAc(b1-2)[GlcNAc(b1-4)]Man(a1-3)[GlcNAc(b1-4)][GlcNAc(b1-2)[GlcNAc(b1-6)]Man(a1-6)]Man(b1-4)GlcNAc(b1-4)[Fuc(a1-6)]GlcNAc
# Summary of the method: as §1
# [10] = biological target: GlcNAc(b1-2)[GlcNAc(b1-6)]Man(a1-6)[GlcNAc(b1-2)Man(a1-3)]Man(b1-4)GlcNAc(b1-4)GlcNAc
# Summary of the method: as §1
# [11] = biological target: GlcNAc(b1-2)[GlcNAc(b1-6)]Man(a1-6)[GlcNAc(b1-2)Man(a1-3)]Man(b1-4)GlcNAc(b1-4)[Fuc(a1-6)]GlcNAc
# Summary of the method: as §1
# [12] = biological target: GlcNAc(b1-2)[GlcNAc(b1-6)]Man(a1-6)[GlcNAc(b1-4)][GlcNAc(b1-2)Man(a1-3)]Man(b1-4)GlcNAc(b1-4)GlcNAc
# Summary of the method: as §1
# GlcNAc(b1-3)Fuc = biological target: GlcNAc(b1-3)Fuc
# Summary of the method: as §1
# GlcNAc(b1-3)Gal = biological target: GlcNAc(b1-3)Gal
# Summary of the method: as §1
# [13] = biological target: GlcNAc(b1-3)Gal(b1-3)GalNAc
# Summary of the method: as §1
# GlcNAc(b1-3)Gal(b1-4)Glc = biological target: GlcNAc(b1-3)Gal(b1-4)Glc
# Summary of the method: as §1
# [14] = biological target: GlcNAc(b1-3)Gal(b1-4)GlcNAc
# Summary of the method: as §1
# [15] = biological target: GlcNAc(b1-3)Gal(b1-4)GlcNAc(b1-2)Man(a1-3)[GlcNAc(b1-3)Gal(b1-4)GlcNAc(b1-2)Man(a1-6)]Man(b1-4)GlcNAc(b1-4)GlcNAc
# Summary of the method: as §1
# [16] = biological target: GlcNAc(b1-3)Gal(b1-4)GlcNAc(b1-2)Man(a1-3)[GlcNAc(b1-3)Gal(b1-4)GlcNAc(b1-2)Man(a1-6)]Man(b1-4)GlcNAc(b1-4)[Fuc(a1-6)]GlcNAc
# Summary of the method: as §1
# [17] = biological target: GlcNAc(b1-3)Gal(b1-4)GlcNAc(b1-2)[GlcNAc(b1-3)Gal(b1-4)GlcNAc(b1-6)]Man(a1-6)[GlcNAc(b1-3)Gal(b1-4)GlcNAc(b1-2)Man(a1-3)]Man(b1-4)GlcNAc(b1-4)GlcNAc
# Summary of the method: as §1
# [18] = biological target: GlcNAc(b1-3)Gal(b1-4)GlcNAc(b1-3)Gal(b1-4)GlcNAc
# Summary of the method: as §1
# [19] = biological target: GlcNAc(b1-3)Gal(b1-4)GlcNAc(b1-3)Gal(b1-4)GlcNAc(b1-2)Man(a1-3)[GlcNAc(b1-3)Gal(b1-4)GlcNAc(b1-3)Gal(b1-4)GlcNAc(b1-2)Man(a1-6)]Man(b1-4)GlcNAc(b1-4)GlcNAc
# Summary of the method: as §1
# [20] = biological target: GlcNAc(b1-3)Gal(b1-4)GlcNAc(b1-3)Gal(b1-4)GlcNAc(b1-2)Man(a1-3)[GlcNAc(b1-3)Gal(b1-4)GlcNAc(b1-3)Gal(b1-4)GlcNAc(b1-2)Man(a1-6)]Man(b1-4)GlcNAc(b1-4)[Fuc(a1-6)]GlcNAc
# Summary of the method: as §1
# [21] = biological target: GlcNAc(b1-3)Gal(b1-4)GlcNAc(b1-3)Gal(b1-4)GlcNAc(b1-2)[GlcNAc(b1-3)Gal(b1-4)GlcNAc(b1-3)Gal(b1-4)GlcNAc(b1-6)]Man(a1-6)[GlcNAc(b1-3)Gal(b1-4)GlcNAc(b1-3)Gal(b1-4)GlcNAc(b1-2)Man(a1-3)]Man(b1-4)GlcNAc(b1-4)[Fuc(a1-6)]GlcNAc
# Summary of the method: as §1
# [22] = biological target: GlcNAc(b1-3)Gal(b1-4)GlcNAc(b1-3)Gal(b1-4)GlcNAc(b1-3)Gal(b1-4)GlcNAc(b1-2)Man(a1-3)[GlcNAc(b1-3)Gal(b1-4)GlcNAc(b1-3)Gal(b1-4)GlcNAc(b1-3)Gal(b1-4)GlcNAc(b1-2)Man(a1-6)]Man(b1-4)GlcNAc(b1-4)GlcNAc
# Summary of the method: as §1
# [23] = biological target: GlcNAc(b1-3)Gal(b1-4)GlcNAc(b1-3)Gal(b1-4)GlcNAc(b1-3)Gal(b1-4)GlcNAc(b1-2)Man(a1-3)[GlcNAc(b1-3)Gal(b1-4)GlcNAc(b1-3)Gal(b1-4)GlcNAc(b1-3)Gal(b1-4)GlcNAc(b1-2)Man(a1-6)]Man(b1-4)GlcNAc(b1-4)[Fuc(a1-6)]GlcNAc
# Summary of the method: as §1
# [24] = biological target: GlcNAc(b1-3)Gal(b1-4)GlcNAc(b1-3)Gal(b1-4)GlcNAc(b1-3)Gal(b1-4)GlcNAc(b1-2)[GlcNAc(b1-3)Gal(b1-4)GlcNAc(b1-3)Gal(b1-4)GlcNAc(b1-3)Gal(b1-4)GlcNAc(b1-6)]Man(a1-6)[GlcNAc(b1-3)Gal(b1-4)GlcNAc(b1-3)Gal(b1-4)GlcNAc(b1-3)Gal(b1-4)GlcNAc(b1-2)Man(a1-3)]Man(b1-4)GlcNAc(b1-4)[Fuc(a1-6)]GlcNAc
# Summary of the method: as §1
# [25] = biological target: GlcNAc(b1-3)Gal(b1-4)GlcNAc(b1-3)Gal(b1-4)GlcNAc(b1-3)Gal(b1-4)GlcNAc(b1-3)Gal(b1-4)GlcNAc(b1-2)Man(a1-3)[GlcNAc(b1-3)Gal(b1-4)GlcNAc(b1-3)Gal(b1-4)GlcNAc(b1-3)Gal(b1-4)GlcNAc(b1-3)Gal(b1-4)GlcNAc(b1-2)Man(a1-6)]Man(b1-4)GlcNAc(b1-4)GlcNAc
# Summary of the method: as §1
# [26] = biological target: GlcNAc(b1-3)Gal(b1-4)GlcNAc(b1-3)Gal(b1-4)GlcNAc(b1-3)Gal(b1-4)GlcNAc(b1-3)Gal(b1-4)GlcNAc(b1-2)Man(a1-3)[GlcNAc(b1-3)Gal(b1-4)GlcNAc(b1-3)Gal(b1-4)GlcNAc(b1-3)Gal(b1-4)GlcNAc(b1-3)Gal(b1-4)GlcNAc(b1-2)Man(a1-6)]Man(b1-4)GlcNAc(b1-4)[Fuc(a1-6)]GlcNAc
# Summary of the method: as §1
# [27] = biological target: GlcNAc(b1-3)Gal(b1-4)GlcNAc(b1-3)Gal(b1-4)GlcNAc(b1-3)Gal(b1-4)GlcNAc(b1-3)Gal(b1-4)GlcNAc(b1-2)[GlcNAc(b1-3)Gal(b1-4)GlcNAc(b1-3)Gal(b1-4)GlcNAc(b1-3)Gal(b1-4)GlcNAc(b1-3)Gal(b1-4)GlcNAc(b1-6)]Man(a1-6)[GlcNAc(b1-3)Gal(b1-4)GlcNAc(b1-3)Gal(b1-4)GlcNAc(b1-3)Gal(b1-4)GlcNAc(b1-3)Gal(b1-4)GlcNAc(b1-2)Man(a1-3)]Man(b1-4)GlcNAc(b1-4)[Fuc(a1-6)]GlcNAc
# Summary of the method: as §1
# [28] = biological target: GlcNAc(b1-3)Gal(b1-4)GlcNAc(b1-3)Gal(b1-4)GlcNAc(b1-3)GalNAc
# Summary of the method: as §1
# [29] = biological target: GlcNAc(b1-3)Gal(b1-4)GlcNAc(b1-3)GalNAc
# Summary of the method: as §1
# [30] = biological target: GlcNAc(b1-3)Gal(b1-4)GlcNAc(b1-3)[GlcNAc(b1-3)Gal(b1-4)GlcNAc(b1-3)]GalNAc
# Summary of the method: as §1
# [31] = biological target: GlcNAc(b1-3)Gal(b1-4)GlcNAc(b1-6)[Gal(b1-3)]GalNAc
# Summary of the method: as §1
# [32] = biological target: GlcNAc(b1-3)Gal(b1-4)GlcNAc(b1-6)[GlcNAc(b1-3)Gal(b1-3)]GalNAc
# Summary of the method: as §1
# [33] = biological target: GlcNAc(b1-3)Gal(b1-4)GlcNAc(b1-6)[GlcNAc(b1-3)]Gal(b1-4)GlcNAc
# Summary of the method: as §1
# GlcNAc(b1-3)GalNAc = biological target: GlcNAc(b1-3)GalNAc
# Summary of the method: as §1
binder,measurement,setting,value
B1,glycan array binding signal (z-score),[1],0.662
same,glycan array binding signal (z-score),[2],-0.41
same,glycan array binding signal (z-score),[3],0.087
same,glycan array binding signal (z-score),[4],-0.557
same,glycan array binding signal (z-score),[5],-0.413
same,glycan array binding signal (z-score),[6],-0.655
same,glycan array binding signal (z-score),[7],-0.277
same,glycan array binding signal (z-score),[8],0.3
same,glycan array binding signal (z-score),[9],-0.111
same,glycan array binding signal (z-score),[10],-0.357
same,glycan array binding signal (z-score),[11],-0.145
same,glycan array binding signal (z-score),[12],-0.439
same,glycan array binding signal (z-score),GlcNAc(b1-3)Fuc,-0.513
same,glycan array binding signal (z-score),GlcNAc(b1-3)Gal,0.28
same,glycan array binding signal (z-score),[13],-0.105
same,glycan array binding signal (z-score),GlcNAc(b1-3)Gal(b1-4)Glc,-0.137
same,glycan array binding signal (z-score),[14],-0.383
same,glycan array binding signal (z-score),[15],-0.237
same,glycan array binding signal (z-score),[16],-0.347
same,glycan array binding signal (z-score),[17],0.423
same,glycan array binding signal (z-score),[18],0.102
same,glycan array binding signal (z-score),[19],0.413
same,glycan array binding signal (z-score),[20],0.461
same,glycan array binding signal (z-score),[21],0.085
same,glycan array binding signal (z-score),[22],-0.532
same,glycan array binding signal (z-score),[23],0.105
same,glycan array binding signal (z-score),[24],1.69
same,glycan array binding signal (z-score),[25],0.73
same,glycan array binding signal (z-score),[26],-0.264
same,glycan array binding signal (z-score),[27],0.437
same,glycan array binding signal (z-score),[28],-0.252
same,glycan array binding signal (z-score),[29],-0.42
same,glycan array binding signal (z-score),[30],-0.552
same,glycan array binding signal (z-score),[31],-0.66
same,glycan array binding signal (z-score),[32],-0.168
same,glycan array binding signal (z-score),[33],0.097
same,glycan array binding signal (z-score),GlcNAc(b1-3)GalNAc,-0.263

# — the supplement of paper PMC8728848
